# In article PMC12136788:
# This is one part of the list.
# B1: chr9:123379744:123379845:-|3pUTR|ENSG00000119522|msi1|FALSE|unique (ssRNA)
# RNA: GGGAGUUCUACAGUCCGACGAUCGUGUUUCAGCAUAGAUUCCAGUUUCGCACCCUGGGCAGACCCCCAGGCCCCAUCCGGGAUAGGGCAGAGGAGGUGCUGGCGGCCCCAGGGAAGGAGGGUGUGUACCCCAAGGCCCCCUGGCAACAGAGGAUUGAGCAUCA
# B2: chr8:41263332:41263433:-|3pUTR|ENSG00000104332|msi1|FALSE|unique (ssRNA)
# RNA: GGGAGUUCUACAGUCCGACGAUCCAGCAUGCCCGCCUAGUUACCUACCGGAGAGUUAUCCUGAUAAAUUAACCUCUCACAGUUAGUGAUCCUGUCCUUUUAACACCUUUUUUGUGGGGUUCUCUCUGACCUUUCAUCGUAAAGCAACAGAGGAUUGAGCAUCA
# B3: chr1:21217244:21217432:-|3pUTR|ENSG00000117298|msi1|FALSE|unique (ssRNA)
# RNA: GGGAGUUCUACAGUCCGACGAUCCCGCUCCAGAGCUUUAAGGAAAAUGAAGUGAGACCCCUCCCCUUAGGCCUGGGGAGCCAUAGGGCUGGCUUCUCUGUGGGUGCGUGGACGUGGGGUUGGGAGCUGGGAAUCUAUUUUUUGCAACAGAGGAUUGAGCAUCA
# B4: chr11:13729208:13729309:+|3pUTR|ENSG00000197601|unk|total|mutant (ssRNA)
# RNA: GGGAGUUCUACAGUCCGACGAUCAAAGUUGGCCGAUAUUUGAUUCUUCAUUUUUUGUUUUUUUCAUCCGUUGAAGUGGGUUUCCGUUUUGUUUAAAAUUAUAACCAGCGUAUUUUCACAUCAUUCUGUAAGUUAAAUGAUAUCCAACAGAGGAUUGAGCAUCA
# B5: chr17:29262523:29262623:-|3pUTR|ENSG00000108256|msi1_unk|total|mutant (ssRNA)
# RNA: GGGAGUUCUACAGUCCGACGAUCACUUUGACUGAUAUUGUAAUUUUCAAAUGUAUAAUAUGUUUACAGAUGUGCCCUGCAUUCCGUCUGCCUUGUUCCUAUUUUGAUUUUUGUUGAGUCUCCUGCCUGCUUGCCAAAAGCCCGCAACAGAGGAUUGAGCAUCA
# B6: chr1:10947665:10948844:-|CDS|ENSG00000175262|control|control|control (ssRNA)
# RNA: GGGAGUUCUACAGUCCGACGAUCCCCCAGGGAGGGGGCCAGGGGGCACAUGGACCUUUCAUCCUCAGAACCAAGCCAGGACAUAGAGGGGCCGGGACUCUCCAUCCUGCCAGCGAGGGAUGCCACAUUCUCCACCCCAAGUGUCAACAGAGGAUUGAGCAUCA
# B7: chr2:128192036:128192329:+|3pUTR|ENSG00000136731|msi1|total|mutant (ssRNA)
# RNA: GGGAGUUCUACAGUCCGACGAUCAUGUCCUGGUGUCACUCAUUGCCUCUUAUCUGUCGCCAUUCUAAUAUAAGUCAGCUUAACCGUUGACUCUGAAUAAUGCAAAACCCAGCUUGCUUCCAGAAUGGCCCCGGACCCUCCUCCCAACAGAGGAUUGAGCAUCA
# B8: chr1:16057768:16058436:-|three_prime_utr|ENSG00000185519|control|control|control (ssRNA)
# RNA: GGGAGUUCUACAGUCCGACGAUCGCAGCCCAGGCAUAUCUGGACCCCGGGGUCCAGGGCAGGGCAUCCCUUGACCCCUCGGGUAGGCACAGGGUAGGUGCGGCAGGGAUGGGGCCAGUGCUCAUGGUGGCCUCUCUGUGCCUCCAACAGAGGAUUGAGCAUCA
# B9: chr3:94057921:94060947:-|three_prime_utr|ENSG00000178700|control|control|control (ssRNA)
# RNA: GGGAGUUCUACAGUCCGACGAUCAGGUGUUUUCUGGUUUAAGUUGUUCCCCCUCCCUCUGAGAAAAGUAUGCAUUUUUACAUUAGAAAAGGGACUUUUGUUGACUUCAGAUCUAUGGAUAAUUAUUUCUAAGCAACGUGUUUUCAACAGAGGAUUGAGCAUCA
# B10: ENSG00000198589:be:win_8801|3pUTR|ENSG00000198589|bound_else_gene|NA|bound_elsewhere_windowed (ssRNA)
# RNA: GGGAGUUCUACAGUCCGACGAUCAAGUCUAUUUUCACCAAUUAUGGAAACAUACAGUGGAGCAAGUAAACCACUUAUUCCAGCUAUAAUAUUAUGAAGAACAUUUCCCAUGCAUCUACAAGCUUGAGAAAUAGGAUUUUCACACAACAGAGGAUUGAGCAUCA
# B11: chr1:31434308:31434366:+|3pUTR|ENSG00000168528|msi1_unk|total|mutant (ssRNA)
# RNA: GGGAGUUCUACAGUCCGACGAUCGCCAGGCUGAGCCCCCACCCCUGCCCCAGCUCCAGGACCUGCCCCUGAGCCGGGCCUUCCCGUCGCCGUGCCUUCAGGGUCCGAGGAGCAUCAGGCUCCUGCAGAGCCCCAUCCCCCCGCCAACAGAGGAUUGAGCAUCA
# B12: chr20:3582170:3582271:+|CDS|ENSG00000088812|msi1|total|mutant (ssRNA)
# RNA: GGGAGUUCUACAGUCCGACGAUCGGCCUUCGGAAGAUCAAUGUGUCCUACUGGUGCUGGGAAGAUAUGUCCCCAUUUACAAACCGUUUACUACAGUGGAUGCCGUCUGAGCCCAGUGAUGCUGGAUUCUGUGGAAUUUUAUCACAACAGAGGAUUGAGCAUCA
# B13: chr7:20413385:20413486:+|3pUTR|ENSG00000105855|msi1|FALSE|unique (ssRNA)
# RNA: GGGAGUUCUACAGUCCGACGAUCACUGAAGAUAUCUUUAUGCAAGACAAGAGUCAGCCAUCAGACACUGAAAUAUAUUAUGAUAGAUUAUGAAGAAUUUUCUCUGUAGAAUUAUAUUCUUCCUGGAACCUGGUAGAGUAGAUUCAACAGAGGAUUGAGCAUCA
# B14: chr12:65247554:65247656:+|3pUTR|ENSG00000174106|unk|total|mutant (ssRNA)
# RNA: GGGAGUUCUACAGUCCGACGAUCCAGUAUUUAAUUUGUUUCAGUAAACUUACUUUAUUACUGUUUAUGAUUUCAGAUAAAAACCGUUGCUGAGUAAAUUUUACUUGUAAUCUACAAUUGGCUUUUUAAAAAUAACCUGUUGAUCAACAGAGGAUUGAGCAUCA
# B15: chr2:224378697:224380208:-|three_prime_utr|ENSG00000124019|control|control|control (ssRNA)
# RNA: GGGAGUUCUACAGUCCGACGAUCUCCUUCAUCUGCAAGUUCAGGGUGAAGAAAAAGAAGAAGAUGAAGAAGAAUUCUUUAUAUAGCAUAAAAUAAAUGUGGUUUUCUAAAACACAAGAUCAGAUAAAAUGUUCUAGAAAUGGACAACAGAGGAUUGAGCAUCA
# B16: chr3:36528868:36528981:+|CDS|ENSG00000144681|unk|total|mutant (ssRNA)
# RNA: GGGAGUUCUACAGUCCGACGAUCAGAAUUGGCUUCUUUCCAGCCAACUUUGUUCAGAGACUACAACAAAAUGAGAAGAUUUUCCGAUGUGUCCGAACCUUCAUUGGGUGUAAGGAACAGGGGCAGAUAACACUGAAAGAGAAUCAACAGAGGAUUGAGCAUCA
# B17: chr1:51287257:51288280:-|three_prime_utr|ENSG00000085831|control|control|control (ssRNA)
# RNA: GGGAGUUCUACAGUCCGACGAUCCAUGGAGUCAAGGACACACUUUCGAAUCCAGGCAGCCACACUCCAAGCCAAGUCUUCCCUAGAGAACAGCAGCAGAUCCAUGGUCUCAUCAGUGUCCUUGUAGCUUUGUGCAGCAGUUCCCAACAGAGGAUUGAGCAUCA
# B18: chr7:2664602:2664704:+|3pUTR|ENSG00000136295|msi1_unk|total|mutant (ssRNA)
# RNA: GGGAGUUCUACAGUCCGACGAUCUCCUCCAGCCUCUGCCGGGCCAUGGCUGUAUGUACUGUCGCUGUGUUUUUUUGUUUUUUCCGAACUGGGUUUGGGGGCUGAUUUUUAUUUCUUUGGGGGCUUUUUUUCUUGGCAAAUACUCAACAGAGGAUUGAGCAUCA
# B19: chr5:95898239:95898810:-|CDS|ENSG00000118985|control|control|control (ssRNA)
# RNA: GGGAGUUCUACAGUCCGACGAUCGUUGACAGUUUUAGUCAAAACGAUAGUAUCUAUGAGGACCAGCAAGACAAAUAUACCUCUAGGACUUCUCUGGAAACCUUACCCCCUGGUUCCGUUCUACUAAAGUGUCCAAAGCCUAUGCAACAGAGGAUUGAGCAUCA
# B20: chr5:83943476:83943577:-|CDS|ENSG00000164176|msi1|FALSE|unique (ssRNA)
# RNA: GGGAGUUCUACAGUCCGACGAUCAUAAAAAUAAUUUCAAAGAAAGAAGGCUGUGUGACUGACAUUUUUCUGCUCUUCUUUAUUAGGUUUUCCAGGGAAAUUUUGACAAUGACACUCACAGAAAAAAUGUCAUCGACCCUCCCACAACAGAGGAUUGAGCAUCA
# B21: chr15:66548596:66548706:+|3pUTR|ENSG00000174442|unk|FALSE|unique (ssRNA)
# RNA: GGGAGUUCUACAGUCCGACGAUCUAGCAAGGGCUCUGAAAUGACAAAGAGAACGAGCACCACAAAUGAGAACAGGAUCAUUUUAGUAAAUACAGCUUUAUCCCAAAAGCUUUAACUGUAUUGGGAAAACUUAAAAAAUAGCAUCAACAGAGGAUUGAGCAUCA
# B22: chr10:121957106:121957207:-|3pUTR|ENSG00000107672|msi1|FALSE|bound_elsewhere (ssRNA)
# RNA: GGGAGUUCUACAGUCCGACGAUCUGUAUCGUACAUAUUGUAUGAUUCAACAUUUUUAAAGGCAGAUUGUUUUUAGUAAAAUGUAGCUUUUGAUAGUUAAUAAAUUUGUCAUGGUUGUCUUUGAUUAAAGGAAACUCACCGCCACAACAGAGGAUUGAGCAUCA
# Biological target: MSI1 full-length (mouse, UniProt Q61474 1-362)
# Chain of UniProt Q61474 (Q61474 whole entry): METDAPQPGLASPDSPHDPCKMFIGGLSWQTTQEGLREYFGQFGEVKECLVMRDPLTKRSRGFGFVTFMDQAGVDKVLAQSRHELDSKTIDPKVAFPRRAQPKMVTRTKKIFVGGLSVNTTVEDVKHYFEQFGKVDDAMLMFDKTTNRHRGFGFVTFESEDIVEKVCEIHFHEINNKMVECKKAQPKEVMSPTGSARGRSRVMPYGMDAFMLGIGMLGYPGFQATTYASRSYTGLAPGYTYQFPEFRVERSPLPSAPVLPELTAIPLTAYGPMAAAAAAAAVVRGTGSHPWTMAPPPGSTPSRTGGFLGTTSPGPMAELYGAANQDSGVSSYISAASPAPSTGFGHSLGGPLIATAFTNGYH
# Test: nsRBNS (natural sequence RNA bind-n-seq); RBNS binding buffer (assumed for nsRBNS): 25 mM Tris pH 7.5, 150 mM KCl, 3 mM MgCl2, 0.01% Triton X-100, 500 ug/ml BSA, 20 U/ml SUPERase-In, 4 C; UNK is unkempt and MSI1 is Musashi-1; names of the RNAs are library labels; protein concentration not given here; high values mean tight binding
row,Binder,binding signal
1,B1,0.381 enrichment R
2,B2,1.17 enrichment R
3,B3,0.48 enrichment R
4,B4,0.59 enrichment R
5,B5,0.444 enrichment R
6,B6,0.58 enrichment R
7,B7,0.445 enrichment R
8,B8,0.357 enrichment R
9,B9,0.983 enrichment R
10,B10,0.447 enrichment R
11,B11,0.921 enrichment R
12,B12,0.399 enrichment R
13,B13,11.6 enrichment R
14,B14,0.657 enrichment R
15,B15,3.04 enrichment R
16,B16,0.331 enrichment R
17,B17,0.554 enrichment R
18,B18,0.777 enrichment R
19,B19,0.621 enrichment R
20,B20,0.736 enrichment R
21,B21,8.63 enrichment R
22,B22,17.9 enrichment R
